Hit rate of the full screen: of about 310,000 compounds, about 2,200 (0.71%) showed an effect of 50% or more. The effect is printed as a negative number. This is one part of the list.

Sequence of human ether-à-go-go-related gene (hERG) potassium channel (Q12809 whole entry, looked up): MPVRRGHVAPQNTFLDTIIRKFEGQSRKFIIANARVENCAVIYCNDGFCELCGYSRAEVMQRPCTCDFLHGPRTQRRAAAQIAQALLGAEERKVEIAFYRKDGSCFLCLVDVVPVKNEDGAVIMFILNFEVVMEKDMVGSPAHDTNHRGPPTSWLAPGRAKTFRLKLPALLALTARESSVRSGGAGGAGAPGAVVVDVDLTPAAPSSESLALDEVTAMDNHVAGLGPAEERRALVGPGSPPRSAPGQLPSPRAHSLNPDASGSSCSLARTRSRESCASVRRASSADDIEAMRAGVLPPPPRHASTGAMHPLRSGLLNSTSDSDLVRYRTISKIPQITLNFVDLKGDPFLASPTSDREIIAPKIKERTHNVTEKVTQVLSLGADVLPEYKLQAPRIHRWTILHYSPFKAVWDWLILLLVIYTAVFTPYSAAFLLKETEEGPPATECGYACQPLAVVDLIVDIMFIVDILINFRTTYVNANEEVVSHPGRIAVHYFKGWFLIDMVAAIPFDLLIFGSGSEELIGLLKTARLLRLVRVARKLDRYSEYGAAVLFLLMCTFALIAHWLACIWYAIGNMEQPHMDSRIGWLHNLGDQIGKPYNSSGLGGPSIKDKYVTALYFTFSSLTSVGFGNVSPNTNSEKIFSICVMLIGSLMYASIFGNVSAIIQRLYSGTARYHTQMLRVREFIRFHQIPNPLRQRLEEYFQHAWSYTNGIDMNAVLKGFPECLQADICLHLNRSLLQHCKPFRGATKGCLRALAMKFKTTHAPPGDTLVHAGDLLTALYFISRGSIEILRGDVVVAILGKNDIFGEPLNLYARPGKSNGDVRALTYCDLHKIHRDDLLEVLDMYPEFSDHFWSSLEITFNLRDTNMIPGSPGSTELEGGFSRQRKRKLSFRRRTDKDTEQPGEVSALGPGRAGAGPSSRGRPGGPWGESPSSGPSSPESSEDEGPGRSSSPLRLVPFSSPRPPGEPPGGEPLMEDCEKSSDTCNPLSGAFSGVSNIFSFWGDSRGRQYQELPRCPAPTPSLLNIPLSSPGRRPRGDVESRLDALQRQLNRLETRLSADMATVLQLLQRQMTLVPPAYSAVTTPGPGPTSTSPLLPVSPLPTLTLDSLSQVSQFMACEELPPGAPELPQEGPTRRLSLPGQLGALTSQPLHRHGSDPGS

The assay has as its target human ether-à-go-go-related gene (hERG) potassium channel (human, UniProt Q12809). Kind of assay: primary screen, population patch clamp on CHO cells stably expressing hERG.
With `O=C(NCc1ccco1)c1ccc(N2CCCCC2)c([N+](=O)[O-])c1`, the “hERG current change (%, negative = inhibition) at 1uM” value is reported as 2.27%.
The figure for `CCCOc1ccc(C(=O)N2CC3(CC(c4cccc(NC(=O)[C@@H]5CCC(=O)N5)c4)=NO3)C[C@H]2C(=O)NC2(C(N)=O)CC2)cc1` (some centres unmarked) is 1.17%; for `Cl.O=C(NCC(c1cccs1)N1CCOCC1)c1ccccc1NS(=O)(=O)c1cccc([N+](=O)[O-])c1` (centres unmarked) it is 4.75%; for `COc1cc(OC)cc(C(=O)NC(=S)N2CCCCC2c2cccnc2)c1` (centres unmarked) it is 9.33%.
The figure for `C=CCSc1nnc2c(n1)OC=Nc1ccccc1-2` is -1.32%; for `O=C(CSc1nnc(-c2ccncc2)n1Cc1ccccc1)NC1CCCc2ccccc21` (centres unmarked) it is -3.99%; for `C=CCC1(CC=C)CCCN1C(=O)c1cc(COc2ccc(C)nc2)on1` it is 4.95%.
The figure for `Cc1ccc(-c2nnc(NCc3nc4ccccc4[nH]3)c3ccccc23)cc1S(=O)(=O)N(C)C` is 14.9%.
For the compound `O=C(CCC(=O)N1CCN(c2cccc(Cl)c2)CC1)N1CCN(c2ccccc2)CC1`, the “hERG current change (%, negative = inhibition) at 1uM” value is reported as -15.3%.
In the case of `O=C(NC(c1ccccc1)c1ccccc1)c1ccc(=O)[nH]n1` it was 10.8%; in that of `CCOC(=O)c1c(S(=O)(=O)NC2CCN(C(=O)OCC)CC2)c(C)n(C)c1C`, 8.35%; in that of `C[C@@H]1NC(=O)/C(=C\c2ccccc2Cl)NC1=O`, 11.7%.
In the case of `CCN(CC)c1ccc2cc(C#N)c(=O)oc2c1` it was 12.2%.
The figure for `N#Cc1c(-c2ccc(F)cc2)nc2n(c1=O)CCS2` is 1.87%; for `CC(Oc1ccc(Br)cc1)c1nc2c3ccccc3nc(=S)n2[nH]1` (centres unmarked) it is 12%; for `COC(=O)c1c(C(=O)OC)c2n(c1C)CCC2` it is 0.0876%.
As for `COC(=O)CSc1nc(N2CCOCC2)c2c(c1C#N)CC(C)(C)OC2`, the “hERG current change (%, negative = inhibition) at 1uM” value was 7.76%.
The figure for `CCN(CC)CCCNC(=S)N(Cc1cccnc1)Cc1cc2cccc(C)c2[nH]c1=O` is 5.28%; for `O=S(=O)(c1ccc(Cl)cc1)N1CN2CCN(C2)C1` it is 11.6%.
As for `Cc1[nH]c(C)c(S(=O)(=O)N2CCN(c3ccccc3)CC2)c1C(=O)N1CCCC1`, the “hERG current change (%, negative = inhibition) at 1uM” value was 7.68%.
The figure for `Cn1c(=NC(=O)COc2ccccc2)sc2cc(F)cc(F)c21` is 11.9%.
For the compound `CCc1ccc(NC(=O)CCc2nnc3ccc(N4CCC5(CC4)OCCO5)nn23)cc1`, the “hERG current change (%, negative = inhibition) at 1uM” value came out at 5.95%.
As for `CSCCC1C(C#N)=C(N)Oc2n[nH]c(-c3cccs3)c21` (centres unmarked), the “hERG current change (%, negative = inhibition) at 1uM” value amounted to 3.2%.
In the case of `CN(CCC#N)C(=O)c1ccc(CNS(=O)(=O)c2ccc(F)cc2)cc1` it was 14.7%; in that of `CN(C)c1ccccc1C(=O)N1CCCC(C(=O)c2ccc3ccccc3c2)C1` (centres unmarked), 5.96%.
In the case of `Brc1ccc(CN2CCNCC2)s1` it was 5.34%.
The figure for `CSc1ccc(C(C(C(=O)c2cccs2)N2CCOCC2)N2CCOCC2)cc1` (centres unmarked) is 3.73%; for `COc1ccc(N2CCN(C(=O)c3cn(CC4CCCCC4)nn3)CC2)cc1` it is 12.4%; for `Cc1cccn2c(=O)c(C=C(C#N)C#N)c(N3CCN(c4ccccc4)CC3)nc12` it is 10.7%.
As to `CC(=O)NN1C(=O)/C(=C/c2ccc(C(C)C)cc2)SC1=S`, the “hERG current change (%, negative = inhibition) at 1uM” value is listed as 3.99%.
The figure for `C/C(=N\NC(=O)c1cc(-c2ccc(C)s2)[nH]n1)c1ccco1` is 12.1%.
In the case of `Cc1cccc(OCC(=O)Nc2ccc(N3CCN(C(=O)c4ccccc4)CC3)cc2)c1` it was -7.92%; in that of `CCO[C@@H]1OC(C(=O)N2CCN(Cc3ccc4c(c3)OCO4)CC2)=C[C@H](c2ccc(C(F)(F)F)cc2)[C@H]1CCCO`, 3.44%.
In the case of `CCN1CNC(=S)N(c2ccccc2OC)C1` it was 12.4%.
Turning to `Cc1ccc(OCC(=O)NCCNC(=O)c2ccco2)cc1`, the “hERG current change (%, negative = inhibition) at 1uM” value was determined as 13.7%.
The figure for `Cc1ccc(N(CC(=O)Nc2ccc(C)cn2)S(=O)(=O)c2c(C)nn(C)c2C)cc1` is -10.6%; for `C[C@@H](NC(=O)c1nc[nH]c1C(=O)NCC(=O)OC(C)(C)C)c1ccccc1` it is 5.66%; for `CCN(CC)CCNCc1cc(Br)ccc1OCC(=O)NCc1ccccc1.Cl` it is -54.6%.
For the compound `C(=C\c1ccccc1)/CNCC1CCCO1.Cl` (centres unmarked), the “hERG current change (%, negative = inhibition) at 1uM” value stood at 9.08%.
In the case of `Cc1cccc(NC(=O)Cc2ccc(NC3=NC4CS(=O)(=O)CC4S3)cc2)c1` (centres unmarked) it was 6.46%; in that of `CCn1c(O)c(N=NC(=O)C(O)c2ccccc2)c2ccccc21` (centres unmarked), 13.2%; in that of `COc1ccccc1CNC(=O)c1cccc(S(=O)(=O)N2CCN(C)CC2)c1`, 6.03%.
In the case of `Cc1cc(C)c(-n2nnnc2SC(C)C)c(C)c1` it was 9.89%; in that of `Nn1c(N2CCCCC2)nc2ccccc21`, 13.2%.
With `COCc1ccc(CN2CCCC(C(=O)Nc3ccc(-c4cccc(OC)c4)cc3)C2)o1` (centres unmarked), the “hERG current change (%, negative = inhibition) at 1uM” value came to 11.9%.
With `COc1ccc(CC(NC(C)=O)C(=O)NC2CCN(c3ncccc3[N+](=O)[O-])CC2)cc1` (centres unmarked), the “hERG current change (%, negative = inhibition) at 1uM” value came to 7.45%.
In the case of `O=c1oc2c(CN3CCOCC3)c(O)ccc2c2c1CCCC2` it was 8.08%.
The figure for `S=C(NCC1CC1)N/N=C/c1ccccc1Cl` is 11.1%.
The figure for `COc1ccc([N+](=O)[O-])cc1N(CC(O)Cn1nnc2ccccc21)S(=O)(=O)c1ccc(C)cc1` (centres unmarked) is -9.01%.
For `O=C(N/N=C/c1cc([N+](=O)[O-])c(N2CCOCC2)cc1N1CCOCC1)c1cccnc1`, the “hERG current change (%, negative = inhibition) at 1uM” value is reported as 3.13%.
Take `Cc1ccc(NC(=O)c2sc(Cl)nc2-c2ccccc2)cc1`: the “hERG current change (%, negative = inhibition) at 1uM” value was 23.3%.
In the case of `CC(=O)N1N=C(c2cccc([N+](=O)[O-])c2)OC1c1ccccc1Cl` (centres unmarked) it was -1.41%; in that of `COc1ccc(Cl)cc1NC(=S)NCc1cccs1`, 8.06%; in that of `Cc1ccc(/C=C2\SC(=S)N(CCC(=O)N3CCOCC3)C2=O)cc1`, 14.1%.
The figure for `O=C(CNC(=O)c1ccco1)NCC(=O)OCc1cccc(C(=O)Oc2ccccc2)c1` is -2.38%; for `CCC(C)NC(=O)Cn1nc([N+](=O)[O-])c(Cl)c1C` (centres unmarked) it is 6.24%; for `CCOc1ccc2nc(NC(=O)Cn3[nH]c(=O)c4ccccc4c3=O)sc2c1` it is 13.2%.
The figure for `CCCc1nc2ccccc2c(NC(=O)CN(CC)CC)c1CC.O=C(O)C(=O)O` is 12.5%.
For the compound `Cc1cc(O)c(/C=N/c2ccccn2)c(=O)o1`, the “hERG current change (%, negative = inhibition) at 1uM” value was 5.79%.
In the case of `O=C(NCC(c1ccco1)N1CCCCC1)c1ccc(S(=O)(=O)Nc2ccccc2)cc1` (centres unmarked) it was 1.8%; in that of `COc1ccc(-c2csc(NC(=O)C3CC(=O)N(c4ccc5c(c4)OCCO5)C3)n2)cc1` (centres unmarked), 3.07%.
In the case of `COCCC(=O)NC12CC3CC(CC(C3)C1)C2` it was 8.9%; in that of `COc1ccc(C(=O)Nc2ccncc2)cc1OC`, 4.34%.
In the case of `O=C(O)CCC(=O)N1N=C(c2ccc(Br)cc2)CC1c1cccs1` (centres unmarked) it was 9.3%; in that of `c1ccc(-c2ccc(-c3nc(-c4cccnc4)no3)cc2)cc1`, 20.3%.
On to `COc1ccccc1C(=O)Nn1cnnc1`, for which the “hERG current change (%, negative = inhibition) at 1uM” value worked out at 12.4%.
In the case of `Cc1nn2c(N3CCN(C)CC3)cc(C(C)(C)C)nc2c1-c1ccccc1` it was 10.9%.
`COc1ccc(-c2[nH]ncc2CN(C)Cc2cccnc2)c(OC)c1`: the “hERG current change (%, negative = inhibition) at 1uM” value turned out to be 0.157%.
The figure for `CCCCOc1ccc(C(=O)NCC(=O)NCc2ccncc2)cc1` is 7.49%.
Regarding `Cc1ccc(-n2cnc3sc(C)c(C)c3c2=O)cc1`, the “hERG current change (%, negative = inhibition) at 1uM” value came out at 1.2%.
The figure for `c1nnc(-c2ccc3c(c2)OCO3)o1` is 3.31%; for `CCc1ccccc1NC(=O)Cc1ccc(-n2cccc2)cc1` it is 7.59%; for `C#CC[N+]1(CC#Cc2ccccc2)CCCC1.[I-]` it is 13.5%.
As for `CC(=O)Nc1cc2c(cc1C(=O)c1ccc(C)cc1)OCCO2`, the “hERG current change (%, negative = inhibition) at 1uM” value was 9.13%.
In the case of `Cc1nc2ccccn2c1-c1csc(Nc2cccc(C(=O)O)c2)n1` it was 7.86%.
Take `Cc1ccccc1NC(=O)/C(C#N)=C\c1cccnc1`: the “hERG current change (%, negative = inhibition) at 1uM” value is 2.75%.
As to `CN(C)C(CNC1CC(C)(C)NC(C)(C)C1)c1cccc(F)c1` (centres unmarked), the “hERG current change (%, negative = inhibition) at 1uM” value came out at 16.8%.
Consider `O=C(O)c1ccc(NCc2ccc3c(c2)OCO3)cc1`, for which the “hERG current change (%, negative = inhibition) at 1uM” value is recorded as 10.6%.
In the case of `O=C(Nc1ccc(Cl)cc1)c1ccc(CN2CCc3ccccc3C2)cc1`, the “hERG current change (%, negative = inhibition) at 1uM” value is given as 20.3%.
In the case of `C#CCC(NC(=O)c1ccc(C(F)(F)F)cc1)C(=O)NCCC` (centres unmarked) it was 16.3%; in that of `COc1ccc(C(=O)/C=C/c2ccccc2C(F)(F)F)cc1`, 13.1%; in that of `COC(=O)C(Cc1c[nH]c2ccccc12)NC(=O)CNC(C)=O` (centres unmarked), 4.2%.
The figure for `O=C(OCC(=O)N1CCN(C(=O)c2ccco2)CC1)c1sc2cc(F)ccc2c1Cl` is 6.48%; for `CN(C)c1ccnc(Nc2ccc(F)cc2)c1C#N` it is 10.2%.
For `COc1cccc(-n2c(O)c(C=NCCN3CCOCC3)c(=O)[nH]c2=O)c1`, the “hERG current change (%, negative = inhibition) at 1uM” value came out at 5.91%.
In the case of `CC1(C)Cc2c(c(N3CCOCC3)nc3sc4c(NCC5CCCO5)nnnc4c23)CS1` (centres unmarked), the “hERG current change (%, negative = inhibition) at 1uM” value was 10.7%.
On to `Cc1[nH]n(-c2ccccc2)c(=O)c1/C=N/N1CCOCC1`, for which the “hERG current change (%, negative = inhibition) at 1uM” value was 4.84%.
In the case of `CC(C)=CC/C=C1\CCC(C(=O)O)C(C(=O)O)C1` (centres unmarked) it was 14.9%.
The figure for `CCn1ncc(CN2CCC(Oc3ccc(C(=O)N4CCCC4)cc3)CC2)c1C` is 8.15%.
